Data published in the supplement of paper PMC7125110.
± gives the standard error. This sample is rich in variants without activity.

B1: glmS ribozyme (parent)
chain: AUAAAAGCGCCAGAACUACAGAAAUGUAGUUGACGAGGAGGAGGUUUAUCGAAUUUUCGGCGGAUGCCUCCAAA

How the values were obtained:
Settings in all cases: with glucosamine-6-phosphate
[1] = variants of: B1; experiment: self-cleavage kobs at 40 uM GlcN6P; higher = faster cleavage; RNA array
In short: (§1)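 Barcoded glmS ribozyme variants on sequenced MiSeq chips were transcribed in situ by E. coli RNA polymerase and tracked through a hybridised Cy3 probe at 37 °C. Glucosamine-6-phosphate (40 μM to 10 mM) in HEPES/KCl/Mg(OAc)2 buffer was flowed in, and tiles were imaged over ~14 h. Signals were normalised to baseline and to non-cleaving reference variants; per-tile medians were fit to one- or two-exponential decays to give kobs. kcat and KM came from weighted Michaelis–Menten fits across concentrations.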

[2] = variants of: B1; experiment: self-cleavage kobs at 640 uM GlcN6P; higher = faster cleavage; RNA array
In short: as §1

[3] = variants of: B1; experiment: self-cleavage kobs at 160 uM GlcN6P; higher = faster cleavage; RNA array
In short: as §1

[4] = variants of: B1; experiment: self-cleavage kobs at 2500 uM GlcN6P; higher = faster cleavage; RNA array
In short: as §1

[5] = variants of: B1; experiment: self-cleavage kobs at 10000 uM GlcN6P; higher = faster cleavage; RNA array
In short: as §1

Variant	self-cleavage kobs at 40 uM GlcN6P [1]	self-cleavage kobs at 640 uM GlcN6P [2]	self-cleavage kobs at 160 uM GlcN6P [3]	self-cleavage kobs at 2500 uM GlcN6P [4]	self-cleavage kobs at 10000 uM GlcN6P [5]
G38U U45G	< 1e-05 s⁻¹	–	–	–	–
G35U G40U	< 1e-05 s⁻¹	< 1e-05 s⁻¹	< 1e-05 s⁻¹	< 1e-05 s⁻¹	< 1e-05 s⁻¹
G41A A52C	< 1e-05 s⁻¹	< 1e-05 s⁻¹	< 1e-05 s⁻¹	–	–
A39C U55A G59C G66C	< 1e-05 s⁻¹	< 1e-05 s⁻¹	–	–	< 1e-05 s⁻¹
G35C A42G	< 1e-05 s⁻¹	< 1e-05 s⁻¹	< 1e-05 s⁻¹	–	< 1e-05 s⁻¹
C34U G66C	< 1e-05 s⁻¹	< 1e-05 s⁻¹	–	–	< 1e-05 s⁻¹
C34G A52U	< 1e-05 s⁻¹	< 1e-05 s⁻¹	< 1e-05 s⁻¹	–	< 1e-05 s⁻¹
G35C A39G	< 1e-05 s⁻¹	< 1e-05 s⁻¹	< 1e-05 s⁻¹	< 1e-05 s⁻¹	< 1e-05 s⁻¹
A39U A53C	9.69e-05 ± 1.1e-05 s⁻¹	0.000759 ± 8.9e-05 s⁻¹	0.000314 ± 4.2e-05 s⁻¹	0.00228 ± 0.00027 s⁻¹	0.00454 ± 0.00047 s⁻¹
C34U U57G	< 1e-05 s⁻¹	< 1e-05 s⁻¹	–	–	–
G40U U47G	4.04e-05 ± 1e-05 s⁻¹	0.000262 ± 5.2e-05 s⁻¹	0.000115 ± 2.6e-05 s⁻¹	0.000699 ± 0.00013 s⁻¹	0.000681 ± 0.00011 s⁻¹
G40U C61A C67A	< 1e-05 s⁻¹	< 1e-05 s⁻¹	–	< 1e-05 s⁻¹	–
C34U G43U	< 1e-05 s⁻¹	< 1e-05 s⁻¹	–	–	–
G41A A42U G59C C67A	< 1e-05 s⁻¹	–	–	–	< 1e-05 s⁻¹
G41A C67G C70U	4.65e-05 ± 2e-05 s⁻¹	–	–	–	–
C34U G37A	< 1e-05 s⁻¹	–	–	< 1e-05 s⁻¹	< 1e-05 s⁻¹
G35U A42G C61U	< 1e-05 s⁻¹	< 1e-05 s⁻¹	< 1e-05 s⁻¹	–	< 1e-05 s⁻¹
G37U A52C	< 1e-05 s⁻¹	< 1e-05 s⁻¹	–	–	< 1e-05 s⁻¹
A39U G60U C71U	< 1e-05 s⁻¹	–	–	–	–
G37C G59C A64G C68A	< 1e-05 s⁻¹	–	< 1e-05 s⁻¹	–	–
A36C G59C	< 1e-05 s⁻¹	< 1e-05 s⁻¹	< 1e-05 s⁻¹	< 1e-05 s⁻¹	< 1e-05 s⁻¹
C34G U54C	< 1e-05 s⁻¹	–	< 1e-05 s⁻¹	< 1e-05 s⁻¹	–
G35U A36G	< 1e-05 s⁻¹	–	< 1e-05 s⁻¹	–	< 1e-05 s⁻¹

Variant	self-cleavage kobs at 40 uM GlcN6P [1]	self-cleavage kobs at 640 uM GlcN6P [2]	self-cleavage kobs at 160 uM GlcN6P [3]	self-cleavage kobs at 2500 uM GlcN6P [4]	self-cleavage kobs at 10000 uM GlcN6P [5]
G40U C50A	< 1e-05 s⁻¹	–	–	–	–
G38U U47C	< 1e-05 s⁻¹	< 1e-05 s⁻¹	–	–	–
A36U G62A	< 1e-05 s⁻¹	< 1e-05 s⁻¹	–	< 1e-05 s⁻¹	–
G40A G44A C70U	< 1e-05 s⁻¹	–	–	–	< 1e-05 s⁻¹
A36C A53C G63U	< 1e-05 s⁻¹	–	–	–	< 1e-05 s⁻¹
G35C G63U	< 1e-05 s⁻¹	< 1e-05 s⁻¹	< 1e-05 s⁻¹	–	–
G35U G38A G51C C68A	< 1e-05 s⁻¹	< 1e-05 s⁻¹	–	< 1e-05 s⁻¹	–
G40C G51C C61A	< 1e-05 s⁻¹	< 1e-05 s⁻¹	–	–	< 1e-05 s⁻¹
C34U C50A	< 1e-05 s⁻¹	–	–	–	< 1e-05 s⁻¹
C34U G41A C68A	< 1e-05 s⁻¹	–	–	–	< 1e-05 s⁻¹
G37C C61G	< 1e-05 s⁻¹	–	–	–	–
A36G C67U	< 1e-05 s⁻¹	–	–	–	–
C34U A42G C58A	< 1e-05 s⁻¹	< 1e-05 s⁻¹	–	< 1e-05 s⁻¹	< 1e-05 s⁻¹
G35C C71G	< 1e-05 s⁻¹	< 1e-05 s⁻¹	< 1e-05 s⁻¹	–	–
C34G G62A	< 1e-05 s⁻¹	< 1e-05 s⁻¹	–	< 1e-05 s⁻¹	–
G41A C70G	4.43e-05 ± 8e-06 s⁻¹	0.000156 ± 1.6e-05 s⁻¹	6.45e-05 ± 1.1e-05 s⁻¹	0.000332 ± 4e-05 s⁻¹	–
G41C G51A	< 1e-05 s⁻¹	–	–	–	< 1e-05 s⁻¹
G41A U49C U56A	< 1e-05 s⁻¹	–	–	–	–
G38A G51U	< 1e-05 s⁻¹	< 1e-05 s⁻¹	–	–	–
C34G G60U	< 1e-05 s⁻¹	–	–	< 1e-05 s⁻¹	–
C34A U46A	< 1e-05 s⁻¹	< 1e-05 s⁻¹	–	< 1e-05 s⁻¹	< 1e-05 s⁻¹
A39U G66U C67U	3.54e-05 ± 1.2e-05 s⁻¹	–	–	–	–
G35C U56G C58A U69A	< 1e-05 s⁻¹	–	< 1e-05 s⁻¹	< 1e-05 s⁻¹	–
